Assay results as given in PMC4336329 (PLoS ONE, 2015).
The whole screen tested about 310,000 compounds, of which about 14,000 (4.5%) showed an effect of 50% or more. The effect is printed as a negative number. Some of the results follow.

molecular target: human ether-à-go-go-related gene (hERG) potassium channel (human, UniProt Q12809); assay: primary screen, population patch clamp on CHO cells stably expressing hERG
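Further: peak tail current of the secondary pulse compared with the same well before compound.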

Chain of human ether-à-go-go-related gene (hERG) potassium channel (Q12809 whole entry, looked up): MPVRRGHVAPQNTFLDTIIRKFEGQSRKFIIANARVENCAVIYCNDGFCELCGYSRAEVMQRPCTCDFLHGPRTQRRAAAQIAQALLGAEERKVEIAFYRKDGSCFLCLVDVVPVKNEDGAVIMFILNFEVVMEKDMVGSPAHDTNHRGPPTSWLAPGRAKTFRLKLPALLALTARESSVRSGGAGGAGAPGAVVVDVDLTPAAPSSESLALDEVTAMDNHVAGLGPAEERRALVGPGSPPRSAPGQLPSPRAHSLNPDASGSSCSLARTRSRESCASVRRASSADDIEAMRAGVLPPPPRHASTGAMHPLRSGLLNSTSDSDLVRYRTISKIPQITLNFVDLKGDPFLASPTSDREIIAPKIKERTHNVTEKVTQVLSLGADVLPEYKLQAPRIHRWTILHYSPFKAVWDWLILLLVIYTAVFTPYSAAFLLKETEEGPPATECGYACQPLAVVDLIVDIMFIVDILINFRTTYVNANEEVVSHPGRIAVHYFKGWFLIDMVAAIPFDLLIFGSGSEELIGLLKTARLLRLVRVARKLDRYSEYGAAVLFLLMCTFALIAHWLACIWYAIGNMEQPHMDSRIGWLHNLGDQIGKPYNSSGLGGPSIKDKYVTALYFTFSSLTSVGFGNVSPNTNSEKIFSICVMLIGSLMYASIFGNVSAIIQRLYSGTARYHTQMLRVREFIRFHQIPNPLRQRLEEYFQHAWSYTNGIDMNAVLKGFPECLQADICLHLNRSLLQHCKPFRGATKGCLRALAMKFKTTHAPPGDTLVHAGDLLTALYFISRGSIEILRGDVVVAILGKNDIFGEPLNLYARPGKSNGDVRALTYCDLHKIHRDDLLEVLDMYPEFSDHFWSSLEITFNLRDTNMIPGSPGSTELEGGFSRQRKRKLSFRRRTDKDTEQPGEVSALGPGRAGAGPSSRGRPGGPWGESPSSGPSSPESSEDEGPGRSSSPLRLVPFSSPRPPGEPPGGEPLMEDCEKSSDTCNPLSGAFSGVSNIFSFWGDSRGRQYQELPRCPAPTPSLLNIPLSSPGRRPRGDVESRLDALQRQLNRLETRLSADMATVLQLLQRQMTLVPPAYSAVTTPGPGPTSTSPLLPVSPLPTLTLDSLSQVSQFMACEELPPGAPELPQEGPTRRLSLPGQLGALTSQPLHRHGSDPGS

SMILES | hERG current change (%, negative = inhibition) at 10uM [%]
CC(=O)c1ccc(NC(=S)NNC(=O)c2ccccc2[N+](=O)[O-])cc1 | 20
Cc1nc2cc(NC(=O)N3CCC(c4ccccc4)C3)ccc2n1C (centres unmarked) | -52.4
Cc1ccc(C(=O)NCCOc2cccc(C)c2)cc1 | 5.16
CCc1ccc(N=c2c([N+](=O)[O-])nn(-c3ccc4c(c3)OCCO4)n2O)cc1 | 1.57
Cc1ncc(CN2CCC(CO)(Cc3ccccc3)CC2)s1 | -7
COc1ccc(NS(=O)(=O)c2ccc3nc(COc4ccc(C#N)cc4)[nH]c3c2)cc1 | -1.6
O=C(COC(=O)CCSc1ccc(Cl)cc1)NCc1ccc(Cl)cc1 | 13.6
CCOC(=O)c1c(NC(=O)CSc2nnc(CNc3ccc(F)cc3)o2)sc(C)c1C | 3.55
CC1(C)Cc2cccc(OCC(=O)Nc3nccs3)c2O1 | 1.64
COCCn1c(SCC(=O)N(C)c2ccccc2)nc2c([nH]c3ccccc32)c1=O | 9.36
O=[N+]([O-])c1cccc(S(=O)(=O)NCC2CCCO2)c1 (centres unmarked) | 14.9
O=C(N[C@@H](Cc1ccccc1)C(=O)NCCc1c[nH]c2ccccc12)c1ccco1 | -12.3
S=c1[nH]nc(COc2cccc3ccccc23)n1Cc1ccccc1 | 13.8
CCOc1cc(N2CCOCC2)c(OCC)cc1NC(=O)c1ccc2ccccc2n1 | 14.1
CCOCCn1c(CCCO)nc2ccccc21 | 7.11
COc1ccc(CNC(=O)CN(C(=O)CCC(=O)Nc2ccccn2)c2cccc(C)c2C)cc1 | 9.38
Cc1nn(CC2CC2)c(=O)n1-c1ccccc1F | 6.94
CCCn1c(=O)c(C(=O)Nc2ccccc2C)c(O)c2ccccc21 | 18.9
CC(=O)c1cccc(NS(=O)(=O)c2cc3c(cc2C)NC(=O)CO3)c1 | -33.9
N#Cc1c(/N=C/C2C(=O)NC(=S)NC2=O)sc2c1CCCC2 | 18.6
COc1ccc(S(=O)(=O)N(C)CC(=O)NCc2ccco2)cc1 | -3.5
O=C(CCCn1cnc([N+](=O)[O-])n1)Nc1cccc(Cl)c1Cl | -5.98
CN1CCN(NC(=S)Nc2ccccc2)CC1 | 10.3

SMILES | hERG current change (%, negative = inhibition) at 10uM [%]
C=CCN(C(=O)c1cccc(N2C(=O)C3CC=CC(C)C3C2=O)c1)c1ccccc1 (centres unmarked) | -0.677
CCCCOC(=O)c1ccccc1C(=O)OCCCC | 5.68
O=C(NCc1ccco1)C1Cc2cc(Cl)ccc2O1 (centres unmarked) | -5.25
Cc1ccc2nc(-c3ccco3)c(Nc3ccccc3)n2c1 | 3.48
COc1ccc(/C=C/C(=O)Nc2ccc(C)cc2)cc1S(=O)(=O)N1CCOCC1 | -32.6
CC(C)NC(=O)C(=O)Nc1cc2c3c(c1)C(C)C(=O)N3CCC2 (centres unmarked) | 15.2
Cc1ccccc1CSCCNC(=O)COc1ccc(Cl)cc1 | -9.54
O=C(O)/C=C/C(=O)Nc1cccc2cccnc12 | 26.7
Cc1ccccc1N1CCN(C2CCCN(C(=O)c3ccc(Cl)s3)C2)CC1 (centres unmarked) | -46.8
CC(=O)Nc1ccc(S(=O)(=O)C(C#N)c2nc3ccccc3nc2NCCO)cc1 (centres unmarked) | 15.3
CCCSc1nnc(N2C(=O)C(O)=C(C(=O)c3ccco3)C2c2ccccc2F)s1 (centres unmarked) | 8.86
COc1ccc(CC(=O)NCCCc2ccccc2)cc1OC | 16.5
O=C(CCn1nc(-c2ccc(Cl)cc2)c2ccccc2c1=O)Nc1cccnc1 | -40.8
Cc1cc2cc(CNC(=O)c3cccc([N+](=O)[O-])c3)ccc2[nH]1 | -25.3
Clc1ccc(C2=Nn3c(nnc3-c3n[nH]c4c3CCC4)SC2)cc1 | -3.84
COc1ccc(N2CCN(C(=O)CC(NC(N)=O)c3cccc(Oc4ccccc4)c3)CC2)cc1 (centres unmarked) | -7.97
C=CCn1c(=N)c(C#N)cc2c(=O)n3ccccc3nc21 | -35.3
Cn1nc(C(F)(F)F)c2cc(C(=O)Nc3ccc(F)c(Cl)c3)sc21 | 10.8
CC1=NN(c2ccccc2)C(=O)/C1=C\C=C1\N(C)c2ccccc2C1(C)C | -13.4
COc1ccc(-c2cc(C(=O)N3CCCC3)no2)cc1 | 3.83
Cc1nc2c(ccc3nc(NC(=O)Cc4ccccc4)sc32)s1 | 3.76
CCNS(=O)(=O)c1ccc(CCC(N)=O)cc1 | 23.5
CCN(CC)C(=O)CCSc1nnc(-c2ccco2)o1 | 10.9

SMILES | hERG current change (%, negative = inhibition) at 10uM [%]
CC1CCCC(NC(=O)CSc2nnnn2C)C1C (centres unmarked) | 2.1
O=C(C1CCN(C2CC(=O)N(c3ccc(Cl)cc3)C2=O)CC1)N1CCOCC1 (centres unmarked) | -0.546
NC(=O)C1CCN(CC(=O)NC(=O)NC2CCCC2)CC1 | 9.34
NC(=O)NCC(=O)N1CCC(C(O)(c2ccccc2)c2ccccc2)CC1 | -2.68
Cc1cccc(OCC(=O)N(Cc2ccc(C)o2)C2CCS(=O)(=O)C2)c1 (centres unmarked) | -42.6
COC(=O)CN1C(=O)C(O)(CC(=O)c2ccccc2)c2ccccc21 (centres unmarked) | 16.7
CC(=O)Nc1c(O)nc(SCC(=O)N2CCN(c3ccc(F)cc3)CC2)[nH]c1=O | -4.9
CCCCOC(=O)CSC1=C(C#N)C(c2ccc3c(c2)OCO3)CC(=O)N1 (centres unmarked) | -1.9
O=C(CSCc1ccc(C(=O)O)cc1)Nc1ccc2ccccc2c1 | 13.5
CC(C)CNc1cc(Cl)c(S(=O)(=O)NCC(C)C)cc1C(=O)O | 6.44
CCCc1cc(NCCCCO)n2c(nc3ccccc32)c1C#N | -53.1
O=C(NNS(=O)(=O)c1ccccc1[N+](=O)[O-])c1ccc(O)cc1 | -8.85
CC(C)CC1=NN(C(=O)c2ccncc2)C(O)(C(F)(F)F)C1 (centres unmarked) | 1.21
O=C(CSc1ccc2nnc(-c3ccccc3)n2n1)N1CCCCC1 | -59.7
CCCCC(CCC(=O)Nc1ccc(C(=O)OCC)cc1)C(=O)O (centres unmarked) | 5.23
CCn1c(=O)cc(OCC(=O)Nc2nc(C)cs2)c2ccccc21 | 5.99
COc1ccc(CN2CCN(c3ccccn3)CC2)c(OC)c1C.O=C([O-])C(=O)[O-] | -55.8
COc1ccc(/C=C2\SC(=O)N(CCNC(=O)C3CCN(S(=O)(=O)c4cccs4)CC3)C2=O)cc1 | 0.693
Cc1ccc(C)c(OCCn2nnc3ccccc32)c1 | 14.2
CCOc1ccc2nc3sc(C(=O)N4CCN(C)CC4)c(N)c3cc2c1 | 3.74
CCOc1ccc(N(C(C)C(=O)Nc2cccnc2)S(C)(=O)=O)cc1 (centres unmarked) | 2.99
CCN(CC)S(=O)(=O)c1ccc2oc(Nc3ccc(OC)cc3)nc2c1 | 15.2
COc1c(Br)cc([N+](=O)[O-])c(OC)c1C(=O)NC(=O)Nc1c(Cl)cccc1Cl | 17.3

SMILES | hERG current change (%, negative = inhibition) at 10uM [%]
O=C(N/C(=C/c1ccccc1Cl)C(=O)N1CCCC1)c1ccccc1 | -5.15
CC(C)C[C@H](NC(=O)[C@@H]1Cc2ccccc2CN1C(=O)OC(C)(C)C)C(=O)NCC1CCC(C(=O)O)CC1 (some centres unmarked) | 8.49
O=C(Nc1ccc(S(=O)(=O)NC2CCCC2)cc1)c1cnccn1 | -7.47
O=S(=O)(NCCc1c[nH]c2ccccc12)c1ccccc1 | 15.1
O=C(C1CCCN(S(=O)(=O)c2cccc3nsnc23)C1)N1CCC2(CC1)OCCO2 (centres unmarked) | -4.58
Cc1ccccc1-n1nc2c(c1NC(=O)c1ccco1)CS(=O)(=O)C2 | 9.22
Cc1ccc(C(=O)O/N=C(\N)c2ccccn2)cc1 | 8.63
CCOc1ccc(CN(C)C(=O)c2cccnc2OCC)cc1OC | -15.6
COc1cc(C(=O)NCCc2ccc(S(N)(=O)=O)cc2)cc(OC)c1OC | 11.9
CCCCn1c(SC(C)C(=O)NCC2CCCO2)nc2cc(C(=O)OC)ccc2c1=O (centres unmarked) | -44.9
COc1ccc(/C=N/NC(=O)c2sccc2OCc2ccc(F)cc2)cc1OC | 10.1
COc1ccc2nc(N/C(N)=N/C(=S)Nc3c(C)cccc3C)nc(C)c2c1 | 0.836
C=CCc1ccc(OCc2ccc(C(=O)Nc3ccc(NC(C)=O)cc3)o2)c(OC)c1 | 6.46
COc1ccccc1N1CCN(CCCCN2C(=O)C3CCCCN3C2=O)CC1 (centres unmarked) | -12.8
C=C1C(C(=O)N2CCN(C)CC2)C1C(=O)N1CCN(C)CC1 (centres unmarked) | -2.23
c1ccc(OCc2nn3c(-c4ccncc4)nnc3s2)cc1 | -15.9
COc1ccc(NC(=O)C(=S)NC2CCCCC2)cc1 | -20.6
Cc1cc(NC(=O)COC(=O)c2nccnc2N)n(-c2ccccc2)n1 | 12.2
CS(=O)(=O)c1ccc(Cl)c(NC(=O)CSc2nncn2-c2ccccc2)c1 | -38.1
Clc1ccc(CNc2ccc(CNc3ncn[nH]3)cc2)cc1 | -7.87
